# Source: PubChem BioAssay AID588342 (National Center for Advancing Translational Sciences (NCATS), 2011)
# Several values for one entry are separate records, joined by “and”; a condition that tells them apart may be missing. Equal entries are not always repeated. Hit rate of the full screen: of about 360,000 compounds, about 25,000 (6.9%) were called active. Inconclusive results, whose numbers are uncertain, are shown with a selection of clear calls. Calls follow the shape of the dose curve; as a rule, active = well fitted inhibition curve with a large enough effect; inconclusive = small, poorly fitted or top-dose-only effect; inactive = flat fitted curve, though single readings scatter. Potencies of inconclusive entries are doubtful fits and often do not repeat.
# Biological target: Luciferin 4-monooxygenase (Photinus pyralis) (UniProt P08659)
# Chain of UniProt P08659 (P08659 whole entry, looked up): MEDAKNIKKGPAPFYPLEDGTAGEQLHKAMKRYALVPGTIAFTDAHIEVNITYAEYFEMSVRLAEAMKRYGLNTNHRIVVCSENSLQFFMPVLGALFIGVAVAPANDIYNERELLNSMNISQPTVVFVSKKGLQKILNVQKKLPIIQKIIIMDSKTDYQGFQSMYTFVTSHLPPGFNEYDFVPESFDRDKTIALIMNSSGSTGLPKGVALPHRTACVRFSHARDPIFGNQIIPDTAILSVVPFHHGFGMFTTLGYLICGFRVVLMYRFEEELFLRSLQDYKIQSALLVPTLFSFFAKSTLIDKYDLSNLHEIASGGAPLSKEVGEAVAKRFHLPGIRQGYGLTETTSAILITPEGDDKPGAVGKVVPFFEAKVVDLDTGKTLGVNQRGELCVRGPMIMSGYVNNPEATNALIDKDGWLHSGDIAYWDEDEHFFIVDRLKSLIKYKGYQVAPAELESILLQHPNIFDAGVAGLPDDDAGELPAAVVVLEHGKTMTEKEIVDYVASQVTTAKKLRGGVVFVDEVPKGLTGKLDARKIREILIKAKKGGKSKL
# Assay: qHTS profiling assay for firefly luciferase inhibitor/activator using purifed enzyme and Km concentrations of substrates (counterscreen for miR-21 project); also: nearly all actives have a fitted effect of over 55% in size
# Conditions: purified FLuc, luminescence inhibition; series mostly up to 57.5 µM
# How it was run: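 Biochemical qHTS of compounds, final roughly 60 µM downward over six points, against 10 nM purified firefly luciferase using Km concentrations of substrates (10 uM D-luciferin, 10 uM ATP) in Tris acetate pH 7.5 buffer; luminescence output.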
# Potency is read from the fitted curve at half-maximal effect; tags tell the direction and shape of the fitted curve.
row,SMILES,Potency
1,COc1cc(OC)cc(C(=O)NC(=S)Nc2ccc3c4c(cccc24)CC3)c1,inactive
2,COc1ccc(-c2nc3ccncc3[nH]2)cc1OC,"inconclusive: 26.9 µM [inhibitor, single point]"
3,O=C(COc1ccccc1Cl)NC(=S)Nc1cccc(NC(=O)c2ccccc2Cl)c1,"inconclusive: 13.5 µM [inhibitor, partial curve]"
4,CSc1nc(-c2ccccc2)nn1S(=O)(=O)c1ccccc1,"inconclusive: 26.9 µM [inhibitor, partial curve, poor fit]"
5,COc1ccc(/C=N/Nc2nc(C)nc(N)n2)cc1,active: 16.9 µM
6,Cc1ccc2[nH]c(C(=O)N3CCOCC3)cc2c1,"inconclusive: 30.1 µM [inhibitor, partial curve, poor fit]"
7,Cc1ccc(-c2nnc(SCC(=O)NC(C)(C)C)nc2-c2ccc(C)cc2)cc1,inactive
8,CCN(CC)c1ccc(/C=N/NC(=O)c2ccccn2)cc1,active: 2.39 µM
9,CCOc1ccc(C(=O)N(Cc2nc(-c3cccc(C)c3)no2)C(C)C)cc1,inactive
10,CCSc1nc2c(sc3nc(C)cc(C)c32)c(=O)[nH]1,inactive
11,O=C(N/N=C\c1ccc(Sc2ccccn2)o1)c1cccc(Br)c1,"inconclusive: 15.1 µM [inhibitor, partial curve, poor fit]"
12,C=C(C)C(=O)N1CC2(CC(c3cccc(NC(=O)/C(C)=C\C)c3)=NO2)C[C@H]1C(N)=O (stereo partly specified),inactive
13,COc1ccc(NC(=O)COc2ccc(C)c(C)c2)cc1S(=O)(=O)N1CCCCC1,"inconclusive: 30.1 µM [inhibitor, partial curve, poor fit]"
14,COc1ccc2nc(SCC(O)c3cccc(Br)c3)[nH]c2c1 (stereo unspecified),"inconclusive: 16.9 µM [inhibitor, single point]"
15,c1ccc(-c2nnc(-c3ccccc3)nn2)cc1,active: 0.379 µM
16,CCOc1ccc(-n2c(N)c(C(=O)NCc3ccco3)sc2=S)cc1,inactive
17,COC(=O)c1cc(S(=O)(=O)N2CCC(C)CC2)cn1C,inactive
18,Clc1ccc2[nH]c3c(NCC4CCCO4)ncnc3c2c1 (stereo unspecified),"inconclusive: 26.9 µM [inhibitor, partial curve, poor fit]"
19,Cc1nn(-c2ccc(N3CCCCC3)nn2)c(C)c1CCC(=O)NCc1ccccc1,inactive
20,COc1ccc(CNC(=O)C(C)Sc2nc3ccccc3c(=O)n2CC2CCCO2)cc1 (stereo unspecified),inactive
21,CC(=O)c1cc(NC(=O)c2cccc(C(F)(F)F)c2)c(=O)oc1C,inactive
22,Cc1ccc(C(=O)Nc2nc3nc(-c4ccccc4)cc(=O)n3[nH]2)cc1,"inconclusive: 21.3 µM [inhibitor, partial curve, poor fit] and inconclusive: 12 µM [inhibitor, partial curve]"
23,Cc1nc2oc3ccc(F)cc3c(=O)c2cc1C(=O)NC(C)(C)C,"inconclusive: 23.9 µM [inhibitor, partial curve]"
24,COc1cccc(C(=O)NCCOc2cc(C)cc(C)c2)c1,"inconclusive: 30.1 µM [inhibitor, partial curve, poor fit]"
25,COc1ccc(/C=C/C2=NNC(=O)CC2)cc1,"inconclusive: 21.3 µM [inhibitor, partial curve]"
26,CCc1cccc(NC(=O)CCc2c(C)nn(-c3ccc(N4CCOCC4)nn3)c2C)c1,active: 16.9 µM

row,SMILES,Potency
1,COc1ccccc1C(=O)Oc1ccc(C(C)(C)C)cc1,active: 6.01 µM
2,COc1ccc(C(=O)NCCn2cc(SCC(N)=O)c3ccccc32)cc1,active: 15.1 µM
3,COc1ccc(Cn2ccn(Cc3cccc(Cl)c3)c(=O)c2=O)cc1,inactive
4,CC(C)C(=O)N1CCC2(CC1)Oc1ccc(Cl)cc1C(=O)C21CC(c2ccc(Cl)cc2)=NO1 (stereo unspecified),inactive
5,O=C(N/N=C/c1ccco1)c1cccc(NC(=O)c2ccccc2Cl)c1,"inconclusive: 37.9 µM [inhibitor, single point]"
6,O=C(Nc1ccc(OC(F)(F)F)cc1)c1ccc(-n2cncn2)nc1,inactive
7,COc1ccc(-c2ccc(-c3noc(-c4ccccc4C)n3)c(OC)n2)cc1,"inconclusive: 10.7 µM [inhibitor, partial curve]"
8,Cc1ccc(NC(=O)Cn2cccc2)cc1C,"inconclusive: 23.9 µM [inhibitor, partial curve, poor fit]"
9,Cc1noc(-c2ccccc2)c1NC(=O)Nc1ccc(Cl)cc1,inactive
10,Cc1ccc(NS(=O)(=O)c2ccc(C(=O)N3CC(C)CC(C)C3)cc2)cc1 (stereo unspecified),inactive
11,CCN(CC)S(=O)(=O)c1ccc2c(c1)c(=O)c(C(=O)NCc1ccccc1Cl)cn2C,inactive
12,COc1ccc(-n2c(SCc3ccccc3F)nc3c([nH]c4ccccc43)c2=O)cc1OC,inactive
13,O=C(Nc1cccc(F)c1)c1c(F)c(F)c(F)c(F)c1F,inactive
14,Cc1cccc(NC(=O)C(C)Sc2nnc(-c3cccnc3)o2)c1 (stereo unspecified),inactive
15,CCCS(=O)(=O)NCc1cn2cccc(C)c2n1,inactive
16,Clc1ccc(-c2cc3ccccc3[nH]2)cc1,active: 9.53 µM
17,Oc1ccccc1C=Nc1cccc2ccccc12,"inconclusive: 37.9 µM [inhibitor, partial curve, poor fit]"
18,O=C(c1cc(-c2ccc3c(c2)OCO3)on1)N1CCOCC1,active: 1.51 µM
19,CC(C)Oc1ccc(OCCSc2nc3ccccc3n2CC(=O)O)cc1,"inconclusive: 37.9 µM [inhibitor, partial curve, poor fit]"
20,O=C(O)CN1C(=O)/C(=C/c2ccc(SCc3ccccc3)o2)SC1=S,active: 19 µM
21,O=C(NNC(=S)Nc1ccccc1Cl)c1ccccc1Cl,inactive
22,COc1ccc(Cl)cc1Nc1nc(-c2sc(NC(=O)c3ccco3)nc2C)cs1,"inconclusive: 21.3 µM [inhibitor, partial curve, poor fit]"
23,Cc1nnc(Oc2ccccc2F)c2ccccc12,"inconclusive: 10.7 µM [inhibitor, partial curve, poor fit]"
24,COc1ccc(S(=O)(=O)n2ccnc2C)c(C)c1C,inactive
25,COc1ccccc1/C=C/C=N/n1c(-c2ccccc2)n[nH]c1=S,active: 15.1 µM
26,Cc1cccc(C(=O)NC(=S)Nc2ccc(N3CCOCC3)cc2)c1,"inconclusive: 37.9 µM [inhibitor, partial curve, poor fit]"

row,SMILES,Potency
1,CCOC(=O)N1CCC(NS(=O)(=O)c2ccc(NC(C)=O)c(Cl)c2)CC1,inactive
2,COc1cccc(N2CCN(C(=O)Cn3nc(C)n4c(cc5c(OC)cccc54)c3=O)CC2)c1,inactive
3,Cc1cc(/C=C(/C#N)C(=O)O)c(C)n1CCC(C)C,"inconclusive: 26.9 µM [inhibitor, single point]"
4,COCCCNC(=O)/C(C#N)=C/c1ccc(F)cc1,inactive
5,COc1cc(Cl)c(C)cc1NC(=O)Cn1c2ncccc2c(=O)n1-c1ccccc1,inactive
6,O=C(c1cc(COc2ccc(F)cc2Cl)on1)N1CCC(OCc2cccnc2)CC1,"inconclusive: 30.1 µM [inhibitor, partial curve, poor fit]"
7,Oc1cc(-c2ccc(N3CCCCC3)nc2)cc2cccnc12,"inconclusive: 8.49 µM [inhibitor, full curve]"
8,CCc1ccc(NC(=O)C(=O)NCC(c2cccnc2)N2CCc3ccccc3C2)cc1 (stereo unspecified),"inconclusive: 15.1 µM [inhibitor, partial curve]"
9,N#CC(c1ccccc1O)N1N=C(c2ccccc2)CC1c1ccccc1 (stereo unspecified),active: 9.53 µM
10,COc1ccc(Cc2c(O)nc[nH]c2=O)cc1,inactive
11,Cc1nc2ccccc2c2oc(C(=O)NCC3COc4ccccc4O3)cc12 (stereo unspecified),inactive
12,Cc1nnc(SCC(=O)N/N=C/c2cn(-c3ccccc3)nc2-c2ccccc2)n1-c1ccccc1,"inconclusive: 16.9 µM [inhibitor, partial curve]"
13,NC(=O)CSc1nc2sc(-c3ccccc3)cc2c(=O)n1N,"inconclusive: 12 µM [inhibitor, partial curve]"
14,CCOC(=O)C(C)Sc1ncc(-c2ccc(Cl)cc2)cn1 (stereo unspecified),"inconclusive: 23.9 µM [inhibitor, single point]"
15,O=S(=O)(c1ccc2nc(N3CCN(c4ccc(F)cc4)CC3)ccc2c1)N1CCCCC1,inactive
16,N/C(=N\N=C/c1ccc(Br)cc1)N/N=C\c1ccc(Br)cc1,active: 10.7 µM
17,Cc1[nH]c(=O)[nH]c(=O)c1S(=O)(=O)Nc1cccc([N+](=O)[O-])c1C,inactive
18,COc1ccc(OC)c(-n2c(=S)[nH]c3c(sc(=S)n3-c3ccccc3C)c2=O)c1,"inconclusive: 16.9 µM [inhibitor, single point]"
19,CCOC(=O)N=Nc1c(O)n(Cc2ccccc2)c2ccccc12,"inconclusive: 26.9 µM [inhibitor, single point]"
20,CSc1ccccc1C(=O)Nc1cc(C)cc(C)c1,"inconclusive: 23.9 µM [inhibitor, single point]"
21,Nn1c(SCc2ccc(C(=O)O)cc2)nnc1-c1ccc(Cl)cc1Cl,"inconclusive: 26.9 µM [inhibitor, partial curve]"
22,Cc1ccc(C(=O)CSc2ccc(-c3ccccc3)nn2)cc1,"inconclusive: 23.9 µM [inhibitor, single point]"
23,COc1cc(C(=O)Nc2nc(-c3ccc(F)cc3)cs2)ccc1OCC(=O)N1CCOCC1,"inconclusive: 19 µM [inhibitor, partial curve, poor fit]"
24,O=C(COC(=O)c1ccccc1C(=O)c1ccccc1)Nc1cccc([N+](=O)[O-])c1,"inconclusive: 37.9 µM [inhibitor, partial curve, poor fit]"
